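Grown in 96-well plates, cells were treated for 48 hours with each compound at five concentrations. Insufficient inhibition: endpoint recorded as highest concentration tested. Abbreviation: GI50, concentration required for 50% inhibition of growth. TGI marks complete inhibition of growth.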

For the assay, the system named is NCI-H322M lung. Put plainly: DTP human tumour cell line panel, 48 h.

For the molecule `COc1ccc(C(=O)/C=C/c2ccc(OC)c(OCc3ccccc3)c2)cc1OC`, the GI50 (usually the concentration giving 50% growth inhibition) is 3.77 µM and the total growth inhibition concentration (TGI) (commonly the concentration at which net growth stops) is greater than 100 µM.
Regarding `CCN1CCN(c2ccc(NC(=O)Nc3ccc(-c4cc(C(=O)NC(C)C)c5ncccc5n4)cc3)cc2C(F)(F)F)CC1`, the GI50 was 1.85 µM and the TGI came to 7.24 µM.
